The whole screen tested about 52,000 compounds, of which about 1,700 (3.3%) were called active. No stated cut-off is given here; in the data, active means survival mostly below about 52% (no sharp cut-off); inactive means mostly above about 56%. Some of the results follow.
Test system: Wild type
Test: growth inhibition of S. aureus wild type versus tarO mutant, primary screen, teichoic acid synthesis inhibitors, RN4220, OD600 (AID 463173)
Conditions: S. aureus RN4220 wild type/DeltatarO growth, OD600, 18 h, hits give low values, screened at 18.75 µg/mL (by protocol)

Compound | survival
CCOc1ccccc1NC(=O)c1c(NCc2sccc2C)sc2c1CCCCC2 | inactive: 74%
C=Cc1ccc(Cn2c(C(=O)O)c(CNCc3cc(Br)ccc3OC)c3ccc(C)cc32)cc1 | inactive: 99%
N#C/C(=C\c1cn(Cc2ccc(C#N)cc2)c2ccccc12)C(=O)NCc1ccco1 | inactive: 104%
Cc1cccc(N2CCN(C(=O)CS(=O)(=O)c3cccc4nsnc34)CC2C)c1 (configuration not stated) | inactive: 74%
CCCN1C(=O)C2(c3ccccc31)c1c(oc3ccccc3c1=O)C(=O)N2CCO (configuration not stated) | inactive: 101%
COc1ccccc1OCc1nc(C#N)c(NCc2ccc(C)cc2)o1 | inactive: 89%
COc1ccc(NCc2cc3cc4c(cc3n(CC(=O)Nc3ccc(C)c(C)c3)c2=O)OCO4)cc1 | inactive: 75%
CC(C)(C)OC(=O)N1CCC(c2c(C(=O)N3CCCCC3)cnn2-c2ccccc2Cl)CC1 | inactive: 71%
Cn1c(=O)oc2cc(S(=O)(=O)CCC(=O)NCCc3ccc(Cl)cc3)ccc21 | inactive: 80%
Cn1c(=O)c2sccc2n2c(CCCC(=O)NC3CCCCC3)nnc12 | inactive: 98%
CCn1c(Cc2ccccc2)nnc1SCC(=O)N(C)C1CCCCC1 | inactive: 108%
Cc1ccc(Cl)cc1N1CCN(S(=O)(=O)c2cc(Br)cc3c2N(C(=O)C2CC2)CC3)CC1 | inactive: 81%
O=C(Cn1c(-c2ccccc2)noc1=O)Nc1ccc(N2CCCCCC2)cc1 | inactive: 111%
COc1ccc(-c2nn(-c3ccccc3)cc2C2NC(=O)NC(C)=C2C(=O)OC(C)C)cc1Cl (configuration not stated) | inactive: 83%
CCOC(=O)CC(NC(=O)CCc1c(C)nc2c(c1C)c(=O)n(C)c(=O)n2C)c1ccc(OCC)c(OC)c1 (configuration not stated) | inactive: 82%
CC(=O)Nc1ccc(NC(=O)C(Cc2ccccc2)NS(=O)(=O)c2ccc3c(c2)oc(=O)n3C)cc1 (configuration not stated) | inactive: 83%
CC(C)c1ccc(NS(=O)(=O)c2ccc3[nH]cc(C(=O)NCCc4ccccc4)c(=O)c3c2)cc1 | inactive: 102%
CCN1CCN(c2ccc(N=Cc3cccc(C)c3O)cc2)CC1 | inactive: 109%
CCOc1ccc(S(=O)(=O)Nc2cc3c(C(=O)OC)c(COC)oc3c3ccccc23)cc1 | inactive: 67%
Cc1ccc(-n2nc(C)c3c(C)cc(=O)n(CC(=O)NC(C)c4ccccc4)c32)cc1 (configuration not stated) | inactive: 143%
COc1ccc(S(=O)(=O)N(CC(=O)Nc2cc(Cl)ccc2C)Cc2ccccc2)cc1OC | inactive: 92%
CCn1nc(C)c2c(-c3ccccc3)cc(=O)n(C(C)C(=O)NCCc3ccc(OC)c(OC)c3)c21 (configuration not stated) | inactive: 73%

Compound | survival
CCOc1cc(-c2ccc(OC(=O)c3ccc(OC)cc3)c(OC)c2)cc(=O)c2c(C)oc(C)c12 | inactive: 74%
Cc1ccc(N(CC(=O)Nc2cc(C)ccc2C)S(=O)(=O)c2c(C)noc2C)cc1 | inactive: 86%
Cc1ccc(N=C2NC(=O)CC(C(=O)Nc3cc(C(F)(F)F)ccc3Cl)S2)cc1 (configuration not stated) | inactive: 91%
O=S(=O)(c1ccc(Cl)cc1)c1nnn2c1nc(NCc1ccc3c(c1)OCO3)c1sccc12 | inactive: 83%
CC(C)C(=O)N(c1nnc(-c2ccncc2)s1)C(C)C | inactive: 111%
CCN(CC)c1nc2c(c(=O)n(Cc3ccccc3)c(=O)n2C)n1Cc1ccccc1 | inactive: 104%
CCOc1ccccc1NC(=O)C1CCN(S(=O)(=O)c2ccc3c(c2)CCCN3C(C)=O)CC1 | inactive: 71%
CCCCN(CC)CCNC(=O)C1CCCN(c2ncnc3onc(C)c23)C1 (configuration not stated) | inactive: 77%
COc1ccc(-n2c(SCC(=O)c3ccccc3)nc3c([nH]c4ccccc43)c2=O)cc1 | inactive: 88%
COc1cc(Cl)c(NS(=O)(=O)c2cc(-c3cc(C)no3)ccc2OC)c(OC)c1 | inactive: 89%
CC(=O)c1ccc(NC(=O)c2ccc(-n3cnnc3)cc2)cc1 | inactive: 65%
CCC(=O)N1c2ccccc2CC1C(=O)NCc1ccc(N(C)C)cc1 (configuration not stated) | inactive: 91%
Cc1ccc(COC(=O)c2[nH]c3c(c2C)C(=O)CC(c2ccc(N(C)C)cc2)C3)cc1 (configuration not stated) | inactive: 90%
CCS(=O)(=O)c1ncc(Cl)c(C(=O)Nc2ccccc2)n1 | inactive: 70%
COc1ccc2nc(SC)c(C#N)cc2c1 | inactive: 109%
COC(=O)c1sccc1S(=O)(=O)N(CC(=O)Nc1ccccc1F)c1ccccc1 | inactive: 67%
CCCn1c(=N)n(CC(=O)C(C)(C)C)c2ccccc21 | inactive: 117%
CCOc1ccc(C(=O)c2oc3ccccc3c2NC(=O)c2cc(-c3ccc(Cl)cc3)on2)cc1 | inactive: 89%
COc1ccc(-c2nnc(SCC(=O)N(C)C3CCCCC3)o2)cc1OC | inactive: 81%
O=c1oc2c3c(ccc2c2ccccc12)OCN(Cc1ccccc1Cl)C3 | inactive: 70%
O=S(=O)(NCC(c1ccco1)S(=O)(=O)c1cccs1)c1ccc(Cl)cc1 (configuration not stated) | inactive: 81%
CN(Cc1ccccc1)c1ncnc2c1nnn2C | inactive: 68%

Compound | survival
CCc1nn(CC(=O)N(C)Cc2ccccc2)c(=O)c2cc3sccc3n12 | inactive: 106%
CC(=O)c1cccc(NS(=O)(=O)c2cc(-c3cnc(C4CC4)o3)ccc2C)c1 | inactive: 113%
Cc1ccc(CSCCC(=O)NCc2ccc(F)cc2Cl)cc1 | inactive: 133%
Cc1cccc(C(=O)n2nc(-c3cccnc3)nc2NCc2ccccc2)c1 | inactive: 106%
CCn1cc(C(=O)NCCCOC)c(=O)c2cc(S(=O)(=O)N3CCCC3)ccc21 | inactive: 84%
Cc1ccc(C(=O)NCCc2ccc(S(N)(=O)=O)cc2)cc1-n1cnc2cccnc21 | inactive: 72%
COC(=O)c1c(NC(=O)Cc2coc3ccc(C(C)C)cc23)sc2c1CCC2 | inactive: 115%
Cc1ccc(NC(=O)Nc2ccccc2OCc2cc(=O)n3ccccc3n2)c(Cl)c1 | inactive: 69%
O=C(CCCCn1c(=O)c2ccccc2n(CC(=O)Nc2ccc(F)cc2F)c1=O)NCCc1ccccc1 | inactive: 98%
COc1cc(C(=O)Nc2ccc3c(c2)N(C2CCCC2)C(=O)c2ccccc2S3)cc(OC)c1OC | inactive: 64%
CCOc1ccccc1NC(=O)C1CCCN1S(=O)(=O)c1ccc2c(c1)C(C)(C)C(=O)N2C (configuration not stated) | inactive: 85%
CC(C)Oc1ccc(C(=O)NCC(c2ccc(N(C)C)cc2)N2CCCC2)cc1 (configuration not stated) | inactive: 47%
CCOc1ccccc1NC(=O)CCNS(=O)(=O)c1cccc2nonc12 | inactive: 65%
Cc1ccc(C)c(NC(=O)Cn2cc(C(=O)c3cccs3)c3ccccc32)c1 | inactive: 143%
CCC(C(=O)NCc1ccc(OC)c(OC)c1)n1nc(C)c2c(C)n(-c3ccc(C)cc3)nc2c1=O (configuration not stated) | inactive: 70%
CC(C)N1CC(C(=O)Nc2ccccc2)CC1=O (configuration not stated) | inactive: 111%
Cc1ccc(C(=O)COC(=O)c2cccc(NC(=O)c3ccc(Cl)cc3Cl)c2)cc1 | inactive: 81%
CCOC(=O)c1c(NC(=O)c2cc3nc(-c4ccc(Br)cc4)cc(C(F)(F)F)n3n2)sc(C(C)=O)c1C | inactive: 77%
Cc1ccc(NS(=O)(=O)c2cc(-c3cnc(C4CC4)o3)ccc2C)cc1Cl | inactive: 152%
Cc1cc(NC(=O)c2ccc3c(c2)OCCO3)cc(-c2nc3ccccc3o2)c1O | inactive: 86%
COc1ccc(NC(=O)N2CCOc3ccc(Cl)cc32)cc1 | inactive: 82%
Nc1c(C(=O)Nc2ccccc2F)sc2nc3c(cc12)CCCCCC3 | inactive: 93%

Compound | survival
O=C(/C=C/c1ccccc1)NC(O)C(=O)c1ccccc1 (configuration not stated) | inactive: 107%
COc1ccc(Cc2nc3c4cnn(-c5ccccc5F)c4ncn3n2)cc1 | inactive: 88%
COc1ccc(Cl)cc1N(C)C(=O)c1cc2c(=O)oc3ccc(C)cc3c2s1 | inactive: 85%
CCc1ccc(NC(=O)CCNS(=O)(=O)c2ccc3c(c2)oc(=O)n3C)cc1 | inactive: 71%
CCOC(=O)c1ccccc1NC(=O)CN1CCCN(Cc2cccc(Cl)c2)S1(=O)=O | inactive: 75%
CCCCNC(=O)c1cc(-c2ccc(OC)cc2)nc2n[nH]c(-c3cccc([N+](=O)[O-])c3)c12 | inactive: 80%
CCc1ccccc1NC(=O)CN1CCCN(Cc2cc(C)ccc2C)S1(=O)=O | inactive: 83%
CCN(CC)c1ccc(C(=O)NCc2ccc3c(c2)CCN3C(=O)c2ccc(F)cc2)cc1 | inactive: 56%
Cc1ccc(-n2nc(C)c3c(C(=O)NCCc4ccccc4)cc(C)nc32)cc1 | inactive: 79%
Cc1ccc(CNC(=O)c2ccc3c(c2)nc2n3CCOC2)cc1 | inactive: 81%
Cc1ccc(C)c(-n2c(SCC(=O)NCC(C)C)nnc2-c2cccnc2)c1 | inactive: 104%
COc1ccccc1-c1cc(C(=O)Nc2cc(OC)c(OC)c(OC)c2)no1 | inactive: 78%
COc1cc(Cc2ccc(N)c(OC)c2)ccc1N | inactive: 104%
CCN(CC)CCCNC(=O)c1nn(C)c2c1CSc1ccccc1-2 | inactive: 91%
COc1ccc(C(=O)NNc2ncnc3c2cnn3-c2cccc(Cl)c2)cc1OC | inactive: 73%
COc1ccc(C(C)=O)cc1CSc1nc(NCCc2ccccc2)c2ccccc2n1 | inactive: 47%
CCCS(=O)(=O)c1c(S(=O)(=O)CCC)c2cc(CC)ccn2c1C(=O)c1ccc(Cl)cc1 | inactive: 90%
Cc1cccc(N(CC(=O)NCCSCc2cccc(Cl)c2)S(=O)(=O)c2ccccc2)c1C | inactive: 65%
COc1ccc(NC(=O)CCc2nc3c(C)nn(-c4ccc(C)cc4)c3n(C)c2=O)cc1 | inactive: 72%
Cc1ccc(NC(=O)C2CCN(S(=O)(=O)c3c(C)noc3/C=C/c3cccs3)CC2)cc1F | inactive: 82%
COc1ccc(Cl)cc1CNCCSc1nnnn1-c1ccccc1 | inactive: 68%

Reference: PubChem BioAssay AID463173 (ICCB-Longwood Screening Facility, Harvard Medical School, 2010)
